Laboratory results as given in the supplement of paper PMC3334620.
In all, about 33,000 sequences were measured (“E-score (-0.5 to 0.5)”: median about -0.053, highest 2% from about 0.37 on). Some of the results follow.

Each sequence was assayed against Hap1 (UniProt P0CE41) (assay: PBM E-score (8-mer binding enrichment) (E-score (-0.5 to 0.5)); higher = stronger / more preferred TF binding; most listed sequences are background and not binding sites). Details: protein concentration: 200 nM; construct: GST-DNA-binding domain.
Procedure, shortened: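 Masliner-normalised scans of fluorescent anti-GST signal were the basis for scoring. That signal came from GST-tagged yeast transcription factors applied at about 100-200 nM to double-stranded universal all-10-mer Agilent arrays on fresh or once-stripped slides. Each ungapped eight-base word, pooled with its reverse complement, received an E-score from the Universal PBM Analysis Suite.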

Chain of UniProt P0CE41 (P0CE41 whole entry, the tested form may be a part): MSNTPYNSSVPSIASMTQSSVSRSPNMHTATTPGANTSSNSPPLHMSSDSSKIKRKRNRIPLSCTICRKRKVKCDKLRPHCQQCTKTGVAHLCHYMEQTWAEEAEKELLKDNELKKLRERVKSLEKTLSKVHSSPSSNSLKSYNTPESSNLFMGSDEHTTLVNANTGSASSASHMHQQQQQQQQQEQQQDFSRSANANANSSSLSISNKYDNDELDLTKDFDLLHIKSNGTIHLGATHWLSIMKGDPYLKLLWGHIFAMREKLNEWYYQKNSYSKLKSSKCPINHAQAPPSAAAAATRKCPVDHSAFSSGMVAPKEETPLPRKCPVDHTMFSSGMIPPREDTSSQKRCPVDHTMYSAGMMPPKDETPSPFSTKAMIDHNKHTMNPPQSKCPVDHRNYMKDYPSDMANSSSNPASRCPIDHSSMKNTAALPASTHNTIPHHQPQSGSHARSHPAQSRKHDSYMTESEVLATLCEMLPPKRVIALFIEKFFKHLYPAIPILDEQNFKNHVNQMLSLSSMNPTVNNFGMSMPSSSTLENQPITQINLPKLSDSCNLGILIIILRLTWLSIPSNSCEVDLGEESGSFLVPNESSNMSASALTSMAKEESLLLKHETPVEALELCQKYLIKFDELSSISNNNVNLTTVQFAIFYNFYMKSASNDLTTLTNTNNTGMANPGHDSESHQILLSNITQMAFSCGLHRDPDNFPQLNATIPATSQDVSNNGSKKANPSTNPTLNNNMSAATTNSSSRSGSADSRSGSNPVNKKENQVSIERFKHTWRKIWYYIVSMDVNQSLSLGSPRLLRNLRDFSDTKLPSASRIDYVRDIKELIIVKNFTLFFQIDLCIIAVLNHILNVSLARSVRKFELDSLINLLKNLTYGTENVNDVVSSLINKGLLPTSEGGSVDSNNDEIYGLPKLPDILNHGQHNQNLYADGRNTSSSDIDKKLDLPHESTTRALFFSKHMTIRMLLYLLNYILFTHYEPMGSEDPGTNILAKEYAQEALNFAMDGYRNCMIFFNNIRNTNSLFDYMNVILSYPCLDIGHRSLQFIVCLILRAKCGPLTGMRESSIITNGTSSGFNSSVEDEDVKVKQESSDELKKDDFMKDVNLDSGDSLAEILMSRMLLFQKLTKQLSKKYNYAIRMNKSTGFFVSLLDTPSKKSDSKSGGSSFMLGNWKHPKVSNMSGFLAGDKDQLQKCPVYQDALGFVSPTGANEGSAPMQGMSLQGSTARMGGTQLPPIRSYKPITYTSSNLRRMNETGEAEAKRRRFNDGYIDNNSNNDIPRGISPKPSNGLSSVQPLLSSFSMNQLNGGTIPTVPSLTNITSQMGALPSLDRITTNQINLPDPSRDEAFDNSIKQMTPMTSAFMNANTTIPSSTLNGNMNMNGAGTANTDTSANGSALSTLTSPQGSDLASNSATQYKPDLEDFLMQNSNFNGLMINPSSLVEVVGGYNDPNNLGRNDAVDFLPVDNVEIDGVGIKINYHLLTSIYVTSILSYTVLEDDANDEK

Sequence	PBM E-score
GGCTTGGA	-0.221
CCGATGCG	0.316
CGGTACGA	0.207
ACCCATTA	0.0564
GCGTATCC	-0.0679
CAAGTGTG	-0.128
AAGGGGCT	-0.166
CCCACGCG	0.101
CGAACACG	0.09
GTGCTTGA	-0.247
GGCGGACA	0.264
ACTCCCCG	0.283
AATTGCCG	0.257
GCCAGTTA	-0.14
AGTCGTAT	-0.123
CGACCCTA	0.00653
CTTAAATA	-0.104
GGTGACCA	-0.222
GGAGACCA	0.156
CTGCGTGC	-0.0143
CCCTGCTC	-0.203
CTCTAGGC	-0.173
CCGGACGG	0.444
CACTGATC	-0.255
CGCCCTTA	0.0404

Sequence	PBM E-score
CCTGAAAC	0.0482
CTTTACCC	-0.0945
CGGCATGA	0.24
AGGGTGAA	-0.0664
CATATTCA	-0.116
ATACTGTA	-0.0332
CATTTGCC	-0.0698
GACGTCTA	-0.144
ACAACCGG	0.243
TTCTGAAA	-0.118
CGAGTACC	0.108
AGGCGCAC	-0.0853
CACTTCAA	-0.016
AATGATAC	-0.12
AGAAGGGA	-0.327
GGAGGTTA	0.168
ACGGCCGC	0.228
GGAAGGGA	-0.00824
AAACAACT	-0.0616
CGGTCAGC	0.109
AAATTAGC	0.0409
CACCTCCC	-0.124
GTATATCA	-0.0364
GCCGAGCA	0.236
AAAGAGGA	-0.226

Sequence	PBM E-score
AACACTAA	-0.103
AACAACTG	-0.179
GGAAATGA	0.145
GATAAGGA	-0.0112
AATCACGT	-0.0116
CGCTAGCA	-0.128
GCACGAAC	-0.146
GGAATCAC	0.196
CCATCTAA	-0.139
AGAGCACG	-0.153
AGGCCGAG	0.303
TGGCTGAA	-0.171
ATGTCGGG	0.226
CAGATCGA	-0.145
ATGTCTAC	-0.222
AAAAAACT	-0.122
GATACATC	0.153
ATGTTGGA	0.0713
GCTTTCCA	-0.11
GGTTTTCA	0.0885
AAGATGCC	-0.13
CTCCAAAG	-0.0981
AGGGGAAC	-0.168
ACTTTAGC	0.00284
CCTACTCG	0.0324

Sequence	PBM E-score
CATAAACC	0.0764
AGGTATGG	-0.0822
CGCGTTAC	0.1
GACCTAGA	0.0321
CATAACGG	0.179
GTTAAAAC	0.137
TTCTAAAA	0.0164
TACTCTGA	-0.13
ATAATGCC	0.304
CATTTCCC	0.162
CGTCCTAA	-0.165
GCGTGCAC	-0.0196
ACGGGTCT	0.00119
AGGATTTC	0.0343
AAGTAGCA	-0.251
CCTGTCAG	-0.132
ACTGCGCC	-0.181
ATGGAACC	0.0821
ACCTTGTG	-0.181
ATAACAAA	0.0217
ACAACTTA	-0.138
AGACAGGG	-0.182
GTCCGTTA	0.444
AAAATACA	-0.209
CGAATAGC	-0.0379

Sequence	PBM E-score
GAAGGGCA	-0.162
CAGTCACC	-0.103
GTCATGCA	-0.193
CCCCCACG	-0.118
ACATCGGA	0.265
AGCCTGTG	-0.238
ATCTCTAC	-0.223
CACTGCCG	0.276
GACTTTAA	0.0403
AAATTAAG	-0.109
CTATAACC	0.0469
CCATGCGG	0.00787
AGTTATTA	0.00662
CTTCCTGC	-0.296
CAGTGCTA	-0.108
GTATAGGA	-0.289
GCCCCAGC	-0.105
AAGTTCCC	0.149
AGGACTTG	-0.144
GCGAAGGA	-0.0352
AAAGTCTA	-0.104
ATTCCACA	0.0968
GAGAACAA	0.0624
ACTGACGC	-0.244
CCCATCAA	-0.152

Sequence	PBM E-score
TGCTGCCA	-0.167
CACCTTCC	-0.0486
ACGGCCCA	0.141
CAGTCTAG	-0.259
AGTTTCCG	0.39
ATTGGGCA	-0.0872
CTAGGTCA	-0.288
ATCGCTGG	0.0577
ACGTAGAA	-0.0299
ATCATCTC	0.00897
TGAATCAA	0.00778
GTTCAACA	-0.0733
AAACACCA	-0.13
CACTGCAA	-0.13
CCATAAGG	-0.397
AATCGGCG	0.307
TAAGGTCA	-0.193
ACGTCGCT	-0.0288
GGTTCCAC	0.0307
CGCCCGGA	0.4
ACACACAA	-0.295
CGAGCGCC	0.195
CCGGTTCG	0.303
AGCTGAGG	-0.214
CGAGGACC	0.145

Sequence	PBM E-score
ACCCCTAA	-0.0223
ACAAAGGT	-0.15
ACAAACGT	-0.257
CCAACCGA	0.138
AGGCCCCA	-0.117
GATGCAGA	-0.231
CTAACGAG	-0.0333
CCTGAACG	0.0789
GGATCCTA	0.0327
AGCTTTAT	-0.118
GACATTGA	0.0583
AAATAGCA	-0.175
CTCGCGGA	0.22
CCATCCAG	-0.274
ATTTCCAA	0.0623
AGCTCACA	-0.29
CACTAGAC	-0.0552
ATAGTGCA	-0.0364
ACTGCTAA	-0.133
ACGAGCGT	-0.22
CGTCTGGA	-0.156
AGCCATGC	-0.107
AGATGGGG	-0.242
AACTTAGA	-0.127
AGGAAGTG	-0.091

Sequence	PBM E-score
GTACGTGA	-0.142
ATGAAATG	-0.0309
GGCTGAAC	0.128
GCGTCTTA	-0.0632
CCGACACC	0.23
ACGACGTA	-0.186
ATACGGTG	0.0257
AACTACCT	0.00606
GCGCAACA	-0.0625
CCGGTAAC	0.36
ACGATGCC	-0.0974
ATCAACAA	-0.207
CTAAAGCC	0.219
ATAAGTTG	-0.016
ACTTGACG	-0.305
ACCCTCTG	-0.199
CTTTGCGA	0.11
AAGGCCTA	-0.155
CGTGTTAG	-0.00291
GCATGTTA	0.109
GAAAGGTC	0.118
CGCGCTTA	0.209
CATTTACA	-0.16
CTAGTTTA	-0.145
AGGACGAG	-0.282

Sequence	PBM E-score
ACTCATAT	-0.12
AAAGTGGA	-0.0321
AATTGTGT	-0.192
GAGAGGCC	-0.0919
GGTTGATA	0.0382
TAGACAAA	-0.209
CCAGGCCA	-0.211
AATGTTCG	0.122
ATACTTTA	-0.0891
ATCTCTAG	-0.16
CCGTCCCC	0.144
CTGCATAC	-0.0402
CGGTACCC	0.0267
AACTGGCA	-0.0421
CCGCATGC	0.0869
CCCAGCAG	-0.0279
AACTCAAT	-0.0596
AACAATGG	-0.166
GCGAATAC	0.118
